Laboratory results taken from PubChem BioAssay AID588591 (National Center for Advancing Translational Sciences (NCATS), 2011).
Among all 390,000 compounds or so, about 4,700 (1.2%) were called active. The shares of active, inactive and inconclusive entries below differ from those in the screen. The call rests on the fitted dose curve; in most records, active means well fitted inhibition curve with a large enough effect; inconclusive means small, poorly fitted or top-dose-only effect, or another doubt; inactive means no such curve, though single readings can be large or run the other way. Where the call is inconclusive, the potency comes from a doubtful curve fit.

molecular target: DNA polymerase eta (Homo sapiens) (UniProt Q9Y253); assay: qHTS for Inhibitors of Polymerase Eta; conditions: recombinant Pol eta, fluorescent DNA replication assay; series mostly up to 114 µM; activity change, negative = inhibition: at the top concentration
Outline: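 Fluorescent replication assay: 50 nM final substrate added after a 15 min room-temperature compound preincubation with 10 nM enzyme. Signal taken at 0 min and again at 10 min.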
On the % scale 0 is the no-effect control and ±100 the full control effect; potency means the concentration at half of the fitted maximal effect; tags describe the fitted curve by direction and shape.

UniProt Q9Y253, sequence (Q9Y253 whole entry, looked up): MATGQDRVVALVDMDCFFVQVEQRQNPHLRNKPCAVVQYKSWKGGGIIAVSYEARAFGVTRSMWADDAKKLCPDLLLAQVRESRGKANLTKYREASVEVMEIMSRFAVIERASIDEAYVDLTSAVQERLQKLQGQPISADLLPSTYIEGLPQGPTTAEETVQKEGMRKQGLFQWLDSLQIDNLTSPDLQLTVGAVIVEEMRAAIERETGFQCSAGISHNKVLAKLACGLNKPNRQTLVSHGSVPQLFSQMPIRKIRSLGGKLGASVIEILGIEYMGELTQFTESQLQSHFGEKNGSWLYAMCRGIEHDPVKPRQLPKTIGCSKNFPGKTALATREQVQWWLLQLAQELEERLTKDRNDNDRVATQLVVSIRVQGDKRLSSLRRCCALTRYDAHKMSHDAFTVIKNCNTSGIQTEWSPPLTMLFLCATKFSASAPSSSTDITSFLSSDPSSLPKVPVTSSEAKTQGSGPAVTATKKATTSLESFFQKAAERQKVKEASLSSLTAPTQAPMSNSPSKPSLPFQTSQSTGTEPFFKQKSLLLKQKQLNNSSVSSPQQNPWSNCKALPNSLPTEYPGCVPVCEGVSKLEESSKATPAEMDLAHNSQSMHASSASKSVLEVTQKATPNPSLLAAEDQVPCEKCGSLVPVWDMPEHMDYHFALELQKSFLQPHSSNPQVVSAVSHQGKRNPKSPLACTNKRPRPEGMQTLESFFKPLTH

SMILES | Potency | activity change, negative = inhibition
O=C(CCSCCC(=O)NCc1cccs1)NCc1cccs1 | inconclusive: 25.1 µM [inhibitor, single point] | –
CCC(=O)Nc1ccc(NC(=S)NC(=O)/C=C/c2ccccc2)cc1 | inconclusive: 25.1 µM [inhibitor, single point] | –
c1ccc(C(c2c[nH]c3ccccc23)c2c[nH]c3ccccc23)nc1 | inconclusive: 22.4 µM [inhibitor, full curve, poor fit] | –
S=c1[nH]nc(-c2cc(-c3ccccc3)n[nH]2)n1/N=C/C=C/c1ccco1 | active: 22.4 µM | –
NNC(=O)CN1C(c2ccccc2Br)=Nc2ccc(Br)cc2C1c1ccccc1 (stereo not given) | inconclusive: 3.55 µM [inhibitor, partial curve, poor fit] | –
Cc1ccc(C(=O)CCC(=O)OCC(=O)N2c3ccccc3NC(=O)C2(C)C)cc1 | inconclusive: 39.8 µM [inhibitor, partial curve, poor fit] | –
CC1(C(=O)NCc2ccc(Cl)c(Cl)c2)Oc2cccnc2NC1=O (stereo not given) | inconclusive: 39.8 µM [inhibitor, single point] | –
COC(=O)CCC(=O)OC1(C)C(=O)C=C2C=C(C3CC3)N(Cc3ccc(OC)cc3)C=C2C1=O (stereo not given) | – | inactive: 10.2%
COc1ccc(/C=N\NC(=O)c2cc(O)c(O)c(O)c2)cc1CN1CCN(c2ccc(F)cc2)CC1 | inconclusive: 3.55 µM [inhibitor, full curve, poor fit] | –
O=C(CCNS(=O)(=O)c1ccccc1)OCC(=O)c1ccc(F)cc1 | – | inactive: -9.78%
CCCn1c(=O)c2sccc2n2c(CCCC(=O)NCc3ccco3)nnc12 | active: 35.5 µM | –
CC(C)(C)c1ccc(/C=N/N2C(=O)CSC2=S)cc1 | – | inactive: -16.4%
CCC1CCC(C(=O)NC(CCSC)C(=O)NCCc2ccc(S(N)(=O)=O)cc2)CC1 (stereo not given) | inconclusive: 35.5 µM [inhibitor, partial curve, poor fit] | –
O=C(NCC(=O)N1CCN(c2ccccc2O)CC1)c1ccc2ccccc2c1 | inconclusive: 56.2 µM [inhibitor, partial curve, poor fit] | –
O=C(CCc1nc2sc3c(c2c(=O)[nH]1)CCCC3)NCCc1ccccc1 | inconclusive: 14.1 µM [inhibitor, full curve, poor fit] | –
CC(CC(=O)Nc1ccc(Br)cc1F)S(=O)(=O)c1ccc2c(c1)NC(=O)CO2 (stereo not given) | inconclusive: 89.1 µM [inhibitor, partial curve, poor fit] | –
O=C(COC(=O)Cn1cnc2ccccc21)Nc1ccc2c(c1)C(=O)c1ccccc1C2=O | inconclusive: 28.2 µM [inhibitor, partial curve, poor fit] | –
O=C(Nc1cccc(F)c1)N1CCCC(CNS(=O)(=O)Cc2ccccc2)C1 (stereo not given) | inconclusive: 89.1 µM [inhibitor, partial curve, poor fit] | –
Cc1cc(C)nc(NS(=O)(=O)c2ccc(-n3cccc3)cc2)n1 | active: 10 µM | –
C=Cc1ccc2c(c1)OCCOCCOCCOCCOCCO2 | inconclusive: 7.94 µM [inhibitor, full curve] | –
COc1ccc(NC(=O)COC(=O)c2ccc3ccccc3n2)cc1OC | inconclusive: 39.8 µM [inhibitor, partial curve, poor fit] | –
CC1=C(C(=O)N(C(C)C)C(C)C)CC(CC(=O)NCCN2CCOCC2)C(=O)N1Cc1ccccc1 (stereo not given) | – | inactive: -15.5%

SMILES | Potency | activity change, negative = inhibition
Cc1cccc(N=Cc2[nH]c3ccc(Br)c(Cl)c3c2O)c1 | inconclusive: 17.8 µM [inhibitor, partial curve, poor fit] | –
CC(C)CCNC(=O)C1CCC(Cn2c(=O)c3sccc3n(CC(=O)NC(C)C)c2=O)CC1 (stereo not given) | – | inactive: -17.4%
CC(C)CSc1oc(-c2ccco2)nc1S(=O)(=O)c1ccccc1 | inconclusive: 25.1 µM [inhibitor, partial curve, poor fit] | –
COc1cc(C=NNC(=O)c2ccccc2NS(=O)(=O)c2cccs2)cc(OC)c1O | inconclusive: 22.4 µM [inhibitor, partial curve, poor fit] | –
CCOC(=O)Nc1ccc2c(COC(=O)CNS(=O)(=O)c3cccc(Br)c3)cc(=O)oc2c1 | inconclusive: 10 µM [inhibitor, partial curve, poor fit] | –
O=C(Nc1cc(Cl)ccc1O)C1CC(c2ccccc2Cl)=NO1 (stereo not given) | inconclusive: 39.8 µM [inhibitor, partial curve, poor fit] | –
CC1C=CCC2C(=O)N(c3cccc(C(=O)NCc4ccccc4)c3)C(=O)C12 (stereo not given) | inconclusive: 89.1 µM [inhibitor, partial curve] | –
COc1ccc(NC(=O)CCC(=O)c2cccs2)cc1S(=O)(=O)Nc1ccc(Cl)cc1 | inconclusive: 100 µM [inhibitor, partial curve, poor fit] | –
COc1ccc(/C=C2/SC(=S)N(c3ccc(S(=O)(=O)Nc4nccs4)cc3)C2=O)cc1 | active: 25.1 µM | –
COc1ccc(CNC(=O)c2cccc(-n3cnc4cccnc43)c2C)cc1 | – | inactive: -9.41%
COc1cccc(CN(C)C[C@H]2OCc3cnnn3CCCC(=O)N([C@@H](C)CO)C[C@@H]2C)c1 | – | inactive: -15.2%
CNS(=O)(=O)c1cccc(C(=O)OCC(=O)c2c(N)n(Cc3ccccc3)c(=O)n(C)c2=O)c1 | inconclusive: 17.8 µM [inhibitor, single point] | –
O=C1Nc2ccc3sc4ccccc4c3c2C1=O | inconclusive: 56.2 µM [inhibitor, partial curve, poor fit] | –
Nc1nc(SCC(=O)Nc2ccc(C(F)(F)F)cc2)[nH]c(=O)c1NC(=O)c1ccc(F)c(F)c1 | – | inactive: -6.45%
Cc1nc2ccc(NC(=S)NCCCO)cc2nc1C | inconclusive: 31.6 µM [inhibitor, partial curve, poor fit] | –
CCCCC1=CC2=CC(=O)C(C)(OC(=O)CC)C(=O)C2=CO1 (stereo not given) | active: 50.1 µM | –
COc1cc(OC)cc(C(=O)NCC(c2cccs2)S(=O)(=O)c2ccc(F)c(C)c2)c1 (stereo not given) | – | inactive: 12.3%
CCOC(=O)Cc1ccc(NS(=O)(=O)c2ccc(SC)cc2)cc1 | – | inactive: -6.23%
CC(C)c1cccc(-c2ccc3c(c2)S(=O)(=O)c2cccc(C(=O)NCc4ccco4)c2C3=O)c1 | active: 39.8 µM | –
COc1ccc(-c2cc(C(=O)NCc3ccc(F)cc3)c3c(-c4ccc(F)cc4)[nH]nc3n2)cc1OC | – | inactive: -0.612%
Cc1sc2nc(CSC(C)C(=O)Nc3cc(S(C)(=O)=O)ccc3Cl)[nH]c(=O)c2c1C (stereo not given) | active: 31.6 µM | –
CCCNC(=O)c1ccc(N2CCC3(CC2)CC(c2cccc(Br)c2)=NO3)c(N)c1 | inconclusive: 44.7 µM [inhibitor, partial curve, poor fit] | –

SMILES | Potency | activity change, negative = inhibition
Cn1c(-c2ccccc2)c(/C=N/NC(=O)c2ccc(O)cc2)c2ccccc21 | – | inactive: -15.4%
CCN(CC)S(=O)(=O)c1cccc(C(=O)N/N=C/c2ccc(O)c(O)c2O)c1 | inconclusive: 14.1 µM [inhibitor, partial curve, poor fit] | –
O=C(c1coc(=O)c(Br)c1)N1CCOCC1 | active: 10 µM | –
Oc1ccc(Cl)cc1C1=Nc2ccccc2N=C(c2cccc(Br)c2)C1 | – | inactive: -7.09%
O=C1c2ccccc2C(=O)N1CCCc1nc(-c2ccc(Cl)cc2)no1 | inconclusive: 79.4 µM [inhibitor, partial curve, poor fit] | –
Cc1cccn2c(=O)c3cc(C(=O)NCc4ccccc4)c(=N)n(CCOCCO)c3nc12 | – | inactive: -5.45%
CCc1ccccc1NC(=O)CSc1nc(-c2ccccc2OC)nc2c1Cc1c(CO)cnc(C)c1O2 | – | inactive: 4.56%
Cc1nc(N2CCCCC2)c2c(C)c(C(=O)Nc3ccccc3C(F)(F)F)sc2n1 | inconclusive: 1.26 µM [inhibitor, partial curve, poor fit] | –
Cc1cc(NC(=O)CCC(=O)N(c2ccccc2)C(C)C(=O)NC2CCCC2)no1 (stereo not given) | inconclusive: 79.4 µM [inhibitor, partial curve, poor fit] | –
CCCn1cnc2c(Sc3c([N+](=O)[O-])ncn3C)nc(N)nc21 | inconclusive: 39.8 µM [inhibitor, partial curve, poor fit] | –
C/C(N)=C(/C#N)C(=O)COc1ncnc2ccc(Br)cc12 | inconclusive: 39.8 µM [inhibitor, single point] | –
O=C1C=C(C#Cc2ccccc2)C[C@@H](c2ccc(F)cc2)C1 | – | inactive: -10.4%
CC(Oc1ccccc1)C(=O)Nc1oc(-c2ccco2)c(-c2ccco2)c1C#N (stereo not given) | active: 20 µM | –
COc1ccc(C(=O)N2CC(=O)Nc3ccc(F)cc3C2c2ccc(F)cc2)c(OC)c1 (stereo not given) | – | inactive: -13.3%
CN(C)c1nc(N)nc(/C(C#N)=C/C2CC3C=CC2C3)n1 (stereo not given) | inconclusive: 28.2 µM [inhibitor, partial curve, poor fit] | –
CN(Cc1ccccc1)C(=O)c1ccc(NC(=O)C2CCCN(C(=O)OC(C)(C)C)C2)cc1 (stereo not given) | inconclusive: 89.1 µM [inhibitor, partial curve, poor fit] | –
COc1ccc(/C=N\NC(=O)c2ccccc2F)cc1COc1ccc(F)cc1F | – | inactive: -13.1%
CC(CCC(C)OC(=O)c1ccccc1C(=O)O)OC(=O)c1ccccc1C(=O)O (stereo not given) | inconclusive: 100 µM [inhibitor, single point] | –
Cc1ccccc1NC(NC(=O)OCCn1c([N+](=O)[O-])cnc1C)C(Cl)(Cl)Cl (stereo not given) | inconclusive: 89.1 µM [inhibitor, partial curve, poor fit] | –
CCCSc1nnc(NC(=O)CSc2sc3c(O)cc(=O)[nH]c3c2C#N)s1 | active: 3.16 µM | –
Cc1cc(C)cc(NS(=O)(=O)c2ccc3[nH]cc(C(=O)N4CCCC4)c(=O)c3c2)c1 | – | inactive: -6.45%
